# Data from PubChem BioAssay AID485344 (National Center for Advancing Translational Sciences (NCATS), 2010).
# Out of some 340,000 compounds screened, about 6,900 (2%) were called active. Rule as the data show it: active = inhibition above about 30%; inactive = below that, where a call was filed. Only a part is listed here, and it is no random draw. Where no call is shown, the source filed none.
# Target: D(2) dopamine receptor (Homo sapiens) (UniProt P14416)
# Assay: HTS Assay for Allosteric Antagonists of the Human D2 Dopamine Receptor: Primary Screen for Antagonists; also: 0% is about no effect
# Settings: HEK293 TREx D2 cells, calcium flux, dopamine EC80; at 10 µM; stronger effect = higher value
# Outline: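 Read-out: kinetic calcium fluorescence (1 cycle/s) in inducible HEK293 T-REx D2 cells after an EC80 dopamine addition that followed 180 s compound preincubation. Loss of the dopamine response indicates antagonism.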
# Sequence of UniProt P14416 (P14416 whole entry, looked up): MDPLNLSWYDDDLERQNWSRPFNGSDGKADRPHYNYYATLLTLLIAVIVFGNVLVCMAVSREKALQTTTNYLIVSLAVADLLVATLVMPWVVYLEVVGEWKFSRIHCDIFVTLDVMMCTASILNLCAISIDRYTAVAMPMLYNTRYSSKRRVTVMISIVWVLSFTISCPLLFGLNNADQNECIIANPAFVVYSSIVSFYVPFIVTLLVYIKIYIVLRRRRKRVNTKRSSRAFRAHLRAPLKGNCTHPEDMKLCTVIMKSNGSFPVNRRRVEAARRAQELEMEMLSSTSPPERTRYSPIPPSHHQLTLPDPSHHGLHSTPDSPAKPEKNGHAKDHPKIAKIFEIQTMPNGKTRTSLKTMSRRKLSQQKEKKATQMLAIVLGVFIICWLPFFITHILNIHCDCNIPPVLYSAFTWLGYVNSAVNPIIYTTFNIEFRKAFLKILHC
row,SMILES,inhibition
1,Cc1ccc(CNC(=O)c2nc(SCc3ccccc3C)ncc2Cl)cc1,6.83%
2,CCOC(=O)c1ccc2c(c1)N(Cc1ccc(F)cc1Cl)C(=O)c1ccccc1S2(=O)=O,1.56%
3,CCN(CC)CC#CCC(O)(c1ccccc1)c1ccc(Br)cc1 (configuration not stated),active: 34.5%
4,COc1cc(OC)c(NC(=O)Nc2cccc(OCc3cc(=O)n4ccccc4n3)c2)cc1Cl,6.83%
5,O=C(CN1CCCCCC1)Nc1ccc(Br)cc1,active: 76.8%
6,COc1ccc(-n2cc(-c3ccccc3)c3c(Nc4ccc(OC)c(OC)c4)ncnc32)cc1,-3.47%
7,Cc1cc2nn(-c3ccc(F)cc3)nc2cc1NC(=O)c1cccc2c(Cl)cccc12,-9.36%
8,Nc1nnnn1/N=C/c1cccc(OCc2ccccc2Cl)c1,active: 30.5%
9,CCCC(=O)Nc1nnc(S(=O)(=O)N2CCCCCC2)s1,10.9%
10,COC(=O)C(NC(=O)CCc1c(C)nc2c(-c3ccccc3)c(C)nn2c1C)C(C)C (configuration not stated),1.76%
11,Cc1ccc(Cl)cc1NC(=O)Cn1c(=O)n(CCC(=O)NCc2ccc3c(c2)OCO3)c(=O)c2sccc21,24.7%
12,O=C(NCCS(=O)(=O)N1CCN(c2ccc(F)cc2)CC1)c1ccco1,active: 33.1%
13,Nc1nc(NCc2ccco2)nc(N2CCN(Cc3ccccc3)CC2)c1[N+](=O)[O-],active: 88.8%
14,CC1=C(c2ccc(F)cc2)S(=O)(=O)N=C1N1CCC(C(=O)NCCc2ccccc2C)CC1,13.5%
15,COc1ccc(C2C(C(=O)Nc3ccccc3)=C(C)Nc3nc(SCC(=O)c4ccc(C)cc4)nn32)cc1 (configuration not stated),6.39%
16,CCOC(=O)c1cn(CC(=O)Nc2ccc(OC)cc2OC)nn1,5.69%
17,O=C(C1CCCN(S(=O)(=O)c2ccc(Br)s2)C1)N1CCN(c2ccccc2F)CC1 (configuration not stated),-5.34%
18,CCOc1ccc(CCNC(=O)c2ccc3c(c2)N(Cc2ccc(C)cc2)CCS3)cc1,-22.6%
19,Fc1ccc(Nc2ncnc3onc(-c4ccc(Cl)cc4)c23)cc1Cl,-12.3%
20,CCN(CC)CCCNc1sc(S(=O)(=O)c2ccccc2)nc1S(=O)(=O)c1ccc(Cl)cc1,27.2%
21,CCN(C(=O)c1sc2nc3n(c(=O)c2c1C)CCCCC3)c1ccc(OC)cc1,21.1%

row,SMILES,inhibition
1,Cc1ccc(C(=O)c2cn(Cc3ccccc3)c3ccccc3c2=O)cc1,-0.0133%
2,Cc1cccc(-c2nc3cc(NC(=O)COc4ccccc4F)ccc3o2)c1,9.99%
3,Cc1ccccc1OCC(=O)Nc1ccccc1C(=O)OCc1cc(=O)n2nc(C3CC3)sc2n1,7.22%
4,Cc1ccc(-c2c3c(=O)n(C)c(=O)n(C)c3c3c(C)nc4ccccc4n23)cc1,9.48%
5,COc1ccc(NC(=O)Cn2ccn(-c3ccc(C)c(C)c3)c(=O)c2=O)cc1Cl,-26.8%
6,Cc1cc(N2CCN(c3ccc(F)cc3)CC2)n2cnnc2n1,8.91%
7,COc1ccc(Cl)cc1NC(=O)CSc1nc(=O)[nH]c2c1CCC2,-1.82%
8,CCC(=O)c1ccccc1OCCN1CCN(CC)CC1,active: 37.5%
9,O=C(O)c1cc(S(=O)(=O)O)ccc1O,active: 42.4%
10,O=C(NNC(=O)c1ccc(F)cc1F)c1ccc2c(c1)OCO2,active: 37%
11,COCCOc1ccc(C(F)(F)F)cc1NC(=O)c1ccc(C(F)(F)F)cc1,active: 58.6%
12,O=C(NCC1OCCc2ccccc21)c1cc(COc2ccc(F)cc2Cl)on1 (configuration not stated),active: 50.2%
13,O=C(CSc1nc(=O)n(Cc2ccccn2)c2c1CCC2)Nc1cccc(Cl)c1,2.83%
14,COCCNC(=O)CSc1nc(-c2ccc(C)cc2)[nH]c1-c1ccc(OC)cc1,23.3%
15,CCCc1nn2c(=O)cc(COC(=O)c3ccccc3NC(=O)c3ccc(OCC)cc3)nc2s1,-19.2%
16,O=C(Nc1ccc(Cl)cc1F)c1cc(S(=O)(=O)NC2CCCCCC2)ccc1F,6.06%
17,CCc1ccc(NC(=O)CN2C(C(=O)OC)=C(c3ccccc3)c3ccccc3S2(=O)=O)cc1,-8.71%
18,CC(C)CCNC(=O)C1CCC(CNS(=O)(=O)c2cccc3nsnc23)CC1 (configuration not stated),5.18%
19,CC(C)=CC(=O)N1CC[C@@H](N2CCN(c3ccccc3F)CC2)[C@H](O)C1,active: 46.3%
20,OC(c1ccccc1)c1nc2ccccc2n1Cc1c(F)cccc1Cl (configuration not stated),-4.97%
21,Cc1oc2ncnc(N3CCOCC3)c2c1C(=O)Nc1ccc(Br)cc1F,2.38%

row,SMILES,inhibition
1,Fc1ccc(-n2nc(-c3ccccc3)c3cnc4ccccc4c32)cc1Cl,1.19%
2,CCOc1ccc(-c2cc3c(=O)n(CC(=O)NCc4ccccc4)ccn3n2)cc1,-2.65%
3,COc1ccccc1CNc1ncnc2c1nc1n2CCCC1,-0.661%
4,Oc1cc2c(cc1CN1CCN(c3ncccn3)CC1)OCO2,active: 83.4%
5,Cc1ccc(Cl)cc1NC(=O)c1cc(S(=O)(=O)N2CCOCC2)cn1C,12.1%
6,COc1ccccc1CNS(=O)(=O)c1c(C)nc2sc(C)cn2c1=O,-7.68%
7,Cc1cc(NC(=O)c2cc(-c3ccc(F)cc3)on2)nn1Cc1ccc(Cl)cc1,5.15%
8,O=C(O)c1ccc2c(c1)N(Cc1ccc(F)cc1)C(=O)c1ccccc1S2=O (configuration not stated),-18.7%
9,Cc1ccc2c(CC(=O)Nc3ccc(S(=O)(=O)N4CCCC(C)C4)cc3)coc2c1 (configuration not stated),-10.5%
10,O=C(NCCc1ccccc1)c1ccc2c(c1)CCN2S(=O)(=O)c1ccc(Cl)cc1,-17.5%
11,CC1CCN(S(=O)(=O)c2ccc3c(c2)N(CC(=O)NCCN(C)C)C(=O)CS3)CC1,-10.2%
12,COC(=O)c1cc(NC(=O)Cn2ncc3c([nH]c4ccccc43)c2=O)cc(C(=O)OC)c1,6.94%
13,O=C(Cn1c(=O)c2cccn2c2ccc(F)cc21)Nc1cccc(F)c1,4.19%
14,CCCCN(C)C(=O)C1CCC(Cn2c(=O)[nH]c3ccsc3c2=O)CC1 (configuration not stated),5.62%
15,COCCNC(=O)CCCn1c(SCc2ccccc2C)nc2c(sc3ccccc32)c1=O,3.3%
16,CC(=O)N1CCc2cc(C(=O)CN3CCN(c4ccccn4)CC3)ccc21,active: 93.4%
17,CCn1cc(/C=C(\NC(=O)c2ccccc2Cl)C(=O)NCCCn2ccnc2)c2ccccc21,-5%
18,Cc1ccc(C2N3CC4(C)CN2CC(c2ccccc2)(C3)C4=O)cc1 (configuration not stated),17.9%
19,CCOCCCNC(=O)C(c1ccc(Cl)cc1)N(Cc1ccc2c(c1)OCO2)C(=O)c1ccc(NC(C)=O)cc1 (configuration not stated),-4.91%
20,Cc1ccc(CNC(=O)c2ccc(N3Cc4ccccc4Oc4ncccc43)s2)cc1,11.4%
